According to the antibiotic and cytotoxicity screens of Wong et al. (2023):
The other results are listed elsewhere or left out.

Tests used:
[1] = system: HSkMC (human skeletal muscle cells); assay: cytotoxicity call (relative viability < 0.9); conditions: 10 µM
[2] = system: HepG2; assay: cytotoxicity call (relative viability < 0.9); conditions: 10 µM
[3] = system: S. aureus RN4220; assay: growth inhibition call (relative growth <= 0.2); conditions: 50 µM

Compound: COc1ccc(NC(=O)Nc2ccc3c(c2)C(=O)N([C@@H](C)CO)C[C@H](C)[C@H](CN(C)C(=O)c2ccccc2)OCCCC[C@H](C)O3)cc1
- cytotoxicity call [1]: inactive
- cytotoxicity call [2]: inactive
- growth inhibition call [3]: inactive

Compound: COCC(=O)N1C[C@@H](C)[C@H](OC)CN(C)C(=O)c2ccc(NC(=O)c3cc(C)on3)cc2OC[C@H]1C
- cytotoxicity call [1]: inactive
- cytotoxicity call [2]: inactive
- growth inhibition call [3]: inactive

Compound: C[C@@H]1CCCCO[C@@H](CN(C)CC2CCCCC2)[C@@H](C)CN([C@@H](C)CO)C(=O)c2cc(NC(=O)Nc3ccc(F)cc3)ccc2O1
- cytotoxicity call [1]: inactive
- cytotoxicity call [2]: inactive
- growth inhibition call [3]: inactive

Compound: C[C@@H]1CN([C@H](C)CO)C(=O)Cc2cc(NS(=O)(=O)c3cccs3)ccc2O[C@@H]1CN(C)Cc1ccc(Oc2ccccc2)cc1
- cytotoxicity call [1]: active
- cytotoxicity call [2]: active
- growth inhibition call [3]: inactive

Compound: C[C@@H]1CN([C@@H](C)CO)C(=O)c2cc(NC(=O)Nc3ccccc3)ccc2O[C@@H](C)CCCCO[C@H]1CN(C)C(=O)Nc1cccc2ccccc12
- cytotoxicity call [1]: inactive
- cytotoxicity call [2]: inactive
- growth inhibition call [3]: inactive

Compound: C[C@@H]1CN([C@H](C)CO)C(=O)Cc2cc(NC(=O)Nc3ccc4c(c3)OCO4)ccc2O[C@@H]1CN(C)Cc1ccc(C(F)(F)F)cc1
- cytotoxicity call [1]: active
- cytotoxicity call [2]: active
- growth inhibition call [3]: inactive

Compound: COc1cccc(-n2cc([C@@H](C)N)cn2)c1
- cytotoxicity call [1]: inactive
- cytotoxicity call [2]: inactive
- growth inhibition call [3]: inactive

Compound: Cn1cnc(S(=O)(=O)N2C[C@H](O)COC[C@@H]3O[C@H](CC(=O)N4CCN(c5ccccc5)CC4)CC[C@H]32)c1
- cytotoxicity call [1]: inactive
- cytotoxicity call [2]: inactive
- growth inhibition call [3]: inactive

Compound: C[C@@H]1CN([C@@H](C)CO)C(=O)Cc2cc(NC(=O)c3ccncc3)ccc2O[C@H]1CN(C)S(C)(=O)=O
- cytotoxicity call [1]: inactive
- cytotoxicity call [2]: inactive
- growth inhibition call [3]: inactive
